In the RNAGym collection of RNA variant scans (doi:10.7554/elife.90254):
The source gives no read counts; variants with many changes may rest on few reads.

B1: LINE1-mini (parent)
chain: GGCAGAGCUCAACACAGCGUGGCAAAGUGGCUGUGGCUAGACUGCC

Variants of: B1
Assay: self-cleavage, relative activity (ratio to wild type); higher = more cleavage; in vitro, sequencing; the parent is a self-cleaving ribozyme

Variant | self-cleavage
C10A C23A G29U | 0.02
C10G A11U U34A G36U | 0.02
C10G A14U G36A C42A | 0.02
C10A C13G U28A C37U | 0.02
C10G G17A G29C C42A | 0.01
C10G G17U G30A C31U G44A | 0.32
C10U A11G A12U G22A | 0.01
C10U A11G C15G G36A C42U | 0.03
C10G G27C C46A | 0.01
C10G U32G A41C C42A | 0
C10G G27U G30C | 0.31
C10G G27U G30A | 0.27
C10A G21C G33U C37U | 0
C10A G17C C37A | 0.03
C10U C13G G36A U43A C45G | 0.01
C10A U28G G40C | 0.02
C10A G29A U32A | 0.02
C10G U20A A25C G30A | 0.04
C10A C18U G29A | 0
C10A C23A C42G | 0.03
C10A G22U C31A C46G | 0.05
C10A C23A A26C | 0.02
C10G G29A C37U | 0
C10A G35U C42U | 0.01

Variant | self-cleavage
C10A C31U A41U | 0.02
C10G G36U A41C | 0.05
C10A G21A C23U U28G | 0.01
C10A G17U C23G G35U G40A | 0.01
C10U A14C C31G | 0.01
C10G A24U C45U | 0.19
C10G G19A G22A C45G | 0.02
C10G A16U G29C | 0.09
C10A G36U G40C | 0.01
C10A G36U G40A | 0.01
C10A G19A U20A A26U U38G C42G U43A | 0
C10U A11U A24C A26U C46U | 0.01
C10U A12C G17A C23G A26C G33U G36A | 0.01
C10G A11G G17C G30C G33U | 0.02
C10A A26U G27A G35C U38A | 0.01
C10A C13U G22U | 0.1
C10A U20G C23A G30A | 0.06
C10G C31U U34G G40C | 0.03
C10A G21A G36A | 0.02
C10A C13G A16G G22U G29U C42U | 0
C10A C13A C18G G35A G36C | 0.05
C10U A14U A25G G27A C37G | 0.02
C10A C23A G33U | 0.01
C10G G21U U32G A39U C46U | 0.01

Variant | self-cleavage
C10G C42U C45U | 0.02
C10G C13G C31G | 0
C10A G17C G22A | 0.09
C10A G17A G35A G44U C45G | 0.01
C10G C23G G44C | 0.01
C10A G17A G30C | 0.08
C10A A26U U32C | 0.03
C10G U28A C37A U43A | 0
C10G A24G C46G | 0.1
C10A C13U A24G U32A C37U | 0.04
C10A C13U C15U G29A U38G G40C | 0.03
C10A G29U C45U | 0.02
C10G A12G U34A U38G | 0.02
C10U A14C G30C C42U | 0.05
C10G C37A C45A | 0.01
C10A A39U C42A C45A | 0.02
C10A G22C G27U G30A G33A | 0
C10A G27C G36U C46A | 0.01
C10U A16G U34A C45U | 0.02
C10A G21A U43A | 0.02
C10G G29U G36A | 0.02
C10U A16C U34C A41U | 0.11
C10U A14U A24U G29C | 0.07
C10G G17U G40C | 0.02

Variant | self-cleavage
C10A U32G G44U C46A | 0.06
C10A U20A A25G U34A | 0.04
C10G A12C G27U U28C | 0.01
C10G G30U A39C | 0.01
C10A C31U G36C C45A | 0.02
C10G G27A U28A G29A C31A U32C C37G | 0
C10G C23G A25U G44C | 0.08
C10U A12G C15A G36A C42U | 0.02
C10G C23A G29U | 0.05
C10G A25C G40C C46U | 0.01
C10U C13G U28G G30C | 0.03
C10U A12U G19C | 0.05
C10G A11C G19U G27A C31A C37A | 0
C10G U20A A25C | 0.04
C10U A12U C15A G35C | 0.03
C10A G17C G40U | 0.04
C10G A26U C46A | 0.09
C10U C13U A14G G29C C37U | 0
C10A C15A G29U | 0.05
C10U A16G G29A U43C | 0.02
C10A C13U A14C | 0.04
C10G G22A G30C | 0.17
C10A G17U G40C | 0.04
C10U A14G C18G | 0.02

Variant | self-cleavage
C10G C13U C18U G33C | 0.03
C10G A11G G30C U32G A41C | 0
C10U C13A A26U A41G | 0.02
C10A C18U A39G | 0.02
C10G A25G C37U | 0.03
C10A C18A C37G | 0.06
C10G A11U G30U U34C G35A | 0.01
C10A G27C C46A | 0.01
C10G A16C U20G G22A A24U U34C | 0
C10A C13U G33U | 0.05
C10A G29U G36A | 0.01
C10A G27U G33U | 0.01
C10A U28G C42U | 0
C10A G21A C23U G29C G30C G40U | 0.01
C10G G17C G36C U38C | 0.02
C10A G19C A25G | 0.03
C10A G22A A26U U38A | 0.31
C10G A12G C15G G21U U28G G35A C45A | 0
C10A C23A U28C | 0.03
C10G A11C A24U U28A C46U | 0.01
C10G A14U U28C G36A | 0
C10G G21C C37A | 0
C10U A11G G29U | 0.01
C10G G27C G30U | 0.35

Variant | self-cleavage
C10G G27C G33C U43A | 0
C10A G17U G21C | 0.01
C10A C13G C18A U38C | 0
C10G G19U G36U G44U | 0
C10G A16G G27A | 0.05
C10A C18U G19C C42A | 0.02
C10A C23A A41G | 0.02
C10G A25C G27U | 0.04
C10G G19A G35C U38C | 0
C10U A16C G35A G40A | 0
C10A C31G G35A | 0.02
C10A C18A G29C G30U C31A G44C | 0
C10G C13A G29U | 0.01
C10G A14U U28G | 0
C10A C15A C23A | 0.03
C10A G36C C37U | 0
C10G C15G A24G G27C G30A G36U U38G | 0
C10A C15A U34A | 0
C10G A14U G35U | 0.03
C10A C13G G19C G36U | 0
C10G C13U G17U C45A | 0.03
C10U A16G G19U G44A | 0.05
C10U A12C G27U | 0.01
C10U A25U C46A | 0.22

Variant | self-cleavage
C10G G17U G22U A24C A26C C42G | 0.02
C10A G27C G29C C42G C45A | 0
C10A U43C C45U | 0
C10G G22A C45A | 0.08
C10U A11U C23G G30A G35A | 0
C10G G19A U43C | 0.02
C10A G35C G44U | 0.03
C10G C13U G35C U38G C45A | 0
C10U A16G U28C | 0.09
C10A C15G A24U | 0.01
C10A C15U G27A | 0.08
C10A C18G U32G U38A | 0.01
C10A G27U U32C | 0.01
C10A A26U C37U | 0.03
C10A U28A A41C C42U C45U | 0.01
C10G A14U A41G | 0
C10A G17C C45U | 0.03
C10U C13U A41C C42U | 0.06
C10A C15A G40U | 0.04
C10A C15A G40A | 0.01
C10A U34G C45A | 0.03
C10A G27U A39U | 0.34
C10A G30C A39U C45A | 0.07
